# Test results taken from PubChem BioAssay (NCI).
#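 Dose response: 5 concentrations. Exposure: 48 h. Format: 96-well plates. Endpoint: linear interpolation; highest concentration if not reached.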 Some entries of the source have several records that differ or are many. The list is limited to them. No stated cut-off is given here; in the data, active means GI50 below about 0.43 µM; inactive means the rest. There may be further records. For part of these data: Values given together are repeats (runs, samples, wells, individuals or studies).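 GI50: concentration for 50% inhibition of growth.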 For part of these data: The tests behind the records often covered other concentration ranges, not given here; some values may only mark the edge of a range.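 The concentration for full growth arrest is given as TGI.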 Records carry a tag for their origin. Letters count within one entry.
# Columns and labels:
# Assay in all cases: DTP human tumour cell line panel, 48 h
# HOP-62 NSCLC = system: HOP-62 NSCLC
# IGROV1 ovarian = system: IGROV1 ovarian
# LOX IMVI melanoma = system: LOX IMVI melanoma
# M14 melanoma = system: M14 melanoma
# NCI-H226 lung = system: NCI-H226 lung
# NCI-H522 lung = system: NCI-H522 lung
# OVCAR-3 ovarian = system: OVCAR-3 ovarian
# SF-268 CNS = system: SF-268 CNS
# SK-MEL-5 melanoma = system: SK-MEL-5 melanoma
# SNB-19 CNS = system: SNB-19 CNS
# SNB-75 CNS = system: SNB-75 CNS
# TK-10 renal = system: TK-10 renal
# CCRF-CEM leukemia = system: CCRF-CEM leukemia
# HL-60(TB) leukemia = system: HL-60(TB) leukemia
# K-562 leukemia = system: K-562 leukemia
# HCC-2998 colon = system: HCC-2998 colon
# A498 renal = system: A498 renal
# ACHN renal = system: ACHN renal
# DLD-1 colon = system: DLD-1 colon
# DMS 273 small cell lung = system: DMS 273 small cell lung
# HCT-15 colon = system: HCT-15 colon
# KM20L2 colon = system: KM20L2 colon
# MOLT-4 leukemia = system: MOLT-4 leukemia
# OVCAR-5 ovarian = system: OVCAR-5 ovarian
# SK-MEL-28 melanoma = system: SK-MEL-28 melanoma
# SR leukemia = system: SR leukemia
smiles,measurement,setting,value
C=C1C(C)C2C(Cc3ccccc3)NC(=O)C23C(OC(C)=O)C=CC(C)(O)C(=O)C(C)C/C=C/C3C1O (stereo not drawn),TGI,HOP-62 NSCLC,1.14 µM and 120 µM
same,TGI,IGROV1 ovarian,28.2 µM and > 500 µM
same,TGI,LOX IMVI melanoma,11 µM and 773 nM
same,TGI,M14 melanoma,16.7 µM and > 500 µM
same,GI50,NCI-H226 lung,16.4 nM and > 500 µM
same,GI50,NCI-H522 lung,41.8 nM [1 test] and 806 nM [mean of 2 tests]
same,GI50,OVCAR-3 ovarian,95 nM and > 500 µM
same,TGI,SF-268 CNS,48.4 µM and > 500 µM
same,TGI,SK-MEL-5 melanoma,20.5 µM and > 500 µM
same,TGI,SNB-19 CNS,13 µM and > 197 µM
same,TGI,SNB-75 CNS,745 nM and 23.1 µM
same,TGI,TK-10 renal,40 µM and > 500 µM
COc1cc(C2c3cc4c(cc3[C@@H](Nc3ccc(F)cc3)C3COC(=O)[C@H]23)OCO4)cc(OC)c1O (stereo partly drawn),TGI,SNB-75 CNS,963 nM and 13.5 µM
Nc1ncc(CN2CCCC2)c(-c2ccccc2O)n1,TGI,CCRF-CEM leukemia,65.9 µM and > 750 µM
same,TGI,HL-60(TB) leukemia,20.5 µM and > 750 µM
same,TGI,K-562 leukemia,31.2 µM and > 750 µM
O=C(NOCCO)c1ccc2cncn2c1Nc1ccc(I)cc1F,TGI,HCC-2998 colon,"790 nM [sample A, mean of 2 tests] and 19.5 µM [sample B, mean of 2 tests]"
same,TGI,M14 melanoma,"> 10 µM [sample A, mean of 2 tests] and 27.3 nM [sample B, mean of 2 tests]"
COc1cc2c(cc1O)CCN[C@@]21CS[C@H]2c3c(OC(C)=O)c(C)c4c(c3C(COC1=O)N1C2C2NC(Cc3cc(C)c(OC)c(O)c32)[C@@H]1O)OCO4 (stereo partly drawn),GI50,A498 renal,2.4e-07 µg/mL and 0.0045 µg/mL
same,GI50,ACHN renal,1.9e-07 µg/mL and 0.0045 µg/mL
same,TGI,DLD-1 colon,3.4e-05 µg/mL and 0.195 µg/mL
same,TGI,DMS 273 small cell lung,2.7e-07 µg/mL and 0.0045 µg/mL
same,GI50,HCC-2998 colon,1.7e-07 µg/mL and 0.0045 µg/mL
same,TGI,HCC-2998 colon,4.7e-07 µg/mL and 0.0045 µg/mL
same,TGI,HCT-15 colon,6.3e-05 µg/mL and 0.012 µg/mL
same,GI50,HOP-62 NSCLC,1.1e-07 µg/mL and 0.0045 µg/mL
same,outcome,KM20L2 colon,active and inactive
same,TGI,MOLT-4 leukemia,3.1e-07 µg/mL and 0.0045 µg/mL
same,GI50,OVCAR-5 ovarian,2.6e-07 µg/mL and 0.0045 µg/mL
same,GI50,SK-MEL-28 melanoma,1.4e-07 µg/mL and 0.0045 µg/mL
same,GI50,SK-MEL-5 melanoma,1.3e-07 µg/mL and 0.0045 µg/mL
same,TGI,SNB-75 CNS,3.4e-07 µg/mL and 0.0045 µg/mL
same,TGI,SR leukemia,0.00027 µg/mL and 0.0045 µg/mL
